From PubChem BioAssay AID1645882 (National Center for Advancing Translational Sciences (NCATS), 2021)
Out of some 16,000 compounds screened, about 120 (0.75%) were called active. Inconclusive results (about 4%) are left out. Calls come from the whole dose curve; as a rule, active = well fitted inhibition curve with a large enough effect; inconclusive = small, poorly fitted or top-dose-only effect; inactive = no such curve, though single readings can be large or run the other way. Some of the results follow. The source holds several records for some structures; these can differ, active in one and inactive in another.

The compounds below were run against Rap guanine nucleotide exchange factor 3 (Homo sapiens) (UniProt O95398) (assay: Validation qHTS for antagonist of cAMP-regulated guanine nucleotide exchange factor 3 (EPAC1)). Conditions: EPAC1 Rap1B-BODIPY-GDP exchange, fluorescence; series mostly up to 150 µM; activity change, negative = inhibition: at the top concentration.
Method in brief: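 EPAC1 (100 nM) mixed with 250 nM RAP1B-BODIPY-GDP and 50 uM GDP; compounds in concentration series, 5 min at room temperature. Fluorescence (ex 480/em 540 nm) read every 5 min for 30 min; normalized to ATA control and DMSO.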
Note: nearly all actives have a fitted effect of over 75% in size.
Potency is the fitted concentration of half-maximal effect.
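Throughout, for activity change, negative = inhibition: plate controls were DMSO for no effect and ATA control for full effect.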

Chain of UniProt O95398 (O95398 whole entry, looked up): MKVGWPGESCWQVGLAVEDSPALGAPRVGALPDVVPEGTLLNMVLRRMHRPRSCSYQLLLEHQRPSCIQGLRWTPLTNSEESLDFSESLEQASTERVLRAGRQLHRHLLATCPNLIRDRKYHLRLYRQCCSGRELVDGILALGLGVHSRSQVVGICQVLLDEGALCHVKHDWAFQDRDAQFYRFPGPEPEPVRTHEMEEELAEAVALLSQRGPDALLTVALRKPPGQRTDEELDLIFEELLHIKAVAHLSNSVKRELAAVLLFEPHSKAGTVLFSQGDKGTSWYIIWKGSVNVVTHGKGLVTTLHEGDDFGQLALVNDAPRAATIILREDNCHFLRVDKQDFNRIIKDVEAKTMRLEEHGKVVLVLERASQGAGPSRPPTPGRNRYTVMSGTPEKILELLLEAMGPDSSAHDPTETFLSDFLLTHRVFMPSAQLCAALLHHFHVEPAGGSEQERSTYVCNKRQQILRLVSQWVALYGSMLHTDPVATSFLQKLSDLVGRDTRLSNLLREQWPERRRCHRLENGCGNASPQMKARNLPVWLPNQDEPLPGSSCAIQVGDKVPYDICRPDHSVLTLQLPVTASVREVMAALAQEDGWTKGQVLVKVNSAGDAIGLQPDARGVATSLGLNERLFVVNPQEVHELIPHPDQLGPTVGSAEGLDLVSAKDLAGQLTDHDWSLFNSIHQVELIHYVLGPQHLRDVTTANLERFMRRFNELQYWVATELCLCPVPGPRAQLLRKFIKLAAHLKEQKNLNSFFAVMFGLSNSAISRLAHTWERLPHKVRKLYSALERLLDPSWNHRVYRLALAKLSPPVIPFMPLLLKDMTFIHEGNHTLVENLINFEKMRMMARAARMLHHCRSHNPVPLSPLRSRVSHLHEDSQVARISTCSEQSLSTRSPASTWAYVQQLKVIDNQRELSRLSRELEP

| SMILES | activity change, negative = inhibition | Potency |
| --- | --- | --- |
| COCC(=O)Nc1cc(C(=O)N2CC3CC4CC(C3)CC2C4)c2c(c1)nc(-c1ccncc1)n2C | inactive: -7.35% | – |
| CCNc1ncc2nc(-c3ccc(OC)cc3)c(=O)n(Cc3ccc(F)cc3)c2n1 | inactive: 10.3% | – |
| CC(=O)N[C@@H](CSC/C=C(\C)CC/C=C(\C)CC/C=C(\C)CCC=C(C)C)C(=O)O | inactive: 32.8% [at 15.3 µM] | active: 56.2 µM |
| COc1ccc(C(=O)c2coc3ccc(O)cc23)cc1 | inactive: 9.11% | – |
| O=C(CCNNC(=O)c1ccncc1)NCc1ccccc1 | inactive | – |
| CN(Cc1ccco1)c1ncncc1-c1ccoc1 | inactive: -7.65% | – |
| CCC(=O)c1ccc2c(c1)N(CCCN(C)C)c1ccccc1S2 | inactive | – |
| Cc1ccccc1N1CCN(CCc2nnc3n2CCCC3)CC1 | inactive: 26.9% | – |
| Cc1noc(C)c1-c1cc(N(C)C)ncn1 | inactive: 17.9% | – |
| Cc1nc2ccccn2c(=O)c1CCN1CCC(C(=O)c2ccc(F)cc2)CC1 | inactive | – |
| CC1(C)C2(Cl)C(Cl)C(Cl)C(Cl)(C(Cl)Cl)C1(Cl)C2Cl (configuration not stated) | inactive: 19.7% | – |
| Cc1cnc(CNc2ncncc2-c2ccc(N(C)C)cc2)cn1 | inactive: -3.8% | – |
| O=C(Nc1ccc(Cl)cc1Cl)[C@@H]1CC=C[C@@H]2CCN(C3CCCCC3)C(=O)[C@@H]21 | inactive: -5.66% | – |
| O=c1c(-c2ccccc2)coc2cc(O)cc(O)c12 | – | active: 79.4 µM |
| Nc1nc(N)c(N=O)c(OCC2CCCCC2)n1 | inactive: 6.1% [at 75.8 µM] | – |
| CO[C@@H]1[C@H](OC(=O)/C=C/C=C/C=C/C=C/C(=O)O)CC[C@]2(CO2)[C@H]1[C@@]1(C)O[C@@H]1CC=C(C)C | inactive: 13.9% | – |
| NC(=O)c1cnccn1 | inactive | – |
| O=c1c(-c2ccc(F)cc2)nc2cnc(Nc3ccccc3)nc2n1C[C@H]1CCCO1 | inactive: 8.12% | – |
| Cc1c(-c2ccc(Cl)cc2)noc1C1CCN(CCc2ccccc2)CC1 | inactive | – |
| NC(C(=O)O)c1cc(O)c(Cl)c(O)c1 (configuration not stated) | – | active: 56.2 µM |
| CC(C)(C)CC(C)(C)c1cc(Cc2cc(C(C)(C)CC(C)(C)C)cc(-n3nc4ccccc4n3)c2O)c(O)c(-n2nc3ccccc3n2)c1 | inactive: 13.5% | – |
| Cc1nc2cnc(Oc3cccc(Cl)c3)nc2n(Cc2ccc(F)cc2)c1=O | inactive: 4.32% | – |

| SMILES | activity change, negative = inhibition | Potency |
| --- | --- | --- |
| CC(=O)c1ccc[nH]1 | inactive: -15.2% | – |
| CN1[C@@H]2CC(OC(=O)[C@H](CO)c3ccccc3)C[C@H]1[C@@H]1O[C@@H]12 (some centres not stated) | inactive | – |
| CCNc1ncc2nc(-c3ccc(Cl)cc3)c(=O)n(C3CC3)c2n1 | inactive: 19% | – |
| CCC1CN(Cc2cccc3nccnc23)Cc2cc(OC)ccc2O1 (configuration not stated) | inactive: 11.3% | – |
| O=C(c1cnccn1)N1CCC2(CCCN(c3ncccn3)C2)CC1 | inactive: -5.2% | – |
| COCC(=O)N1CCC2(CC1)CN(C(=O)Nc1ccc(OC)cc1)C2 | inactive: 8.27% | – |
| COc1ccc2c3c1OC1C[C@@H](O)C=C[C@@]31CCN(C)C2 (some centres not stated) | inactive: 16.1% | – |
| Cc1cc(C(=O)NCC2CCC3(CCN(Cc4ccc(-c5ccccc5)cc4)CC3)O2)n(C)n1 (configuration not stated) | inactive: -4.77% | – |
| CC/C(=C/c1ccccc1OC)c1cc(-c2ccccc2)cc2oc3ccccc3c12 | inactive: -10.5% | – |
| COc1cccc(-c2nccc(NCc3cccc(C)c3)n2)c1 | inactive: -14.8% | – |
| COc1ccc(-c2nc3cnc(N4CCOCC4)nc3n(CCc3ccccc3)c2=O)cc1 | inactive: 25.4% | – |
| C=CCN([C@H](C(=O)OC)C(C)C)S(=O)(=O)CCNCc1ccccc1 | inactive: 12.7% | – |
| COCCn1c(=O)c(-c2ccccc2)nc2cnc(Oc3cccc(Cl)c3)nc21 | inactive: 5.44% | – |
| COc1ccc(CN2[C@@H](CC(=O)O)c3cc(F)ccc3S2(=O)=O)cc1 | inactive: 6.33% | – |
| CC1=C(C(=O)OCc2cc(C)on2)N2C(=O)[C@@H](NC(=O)OCc3cc(C)on3)[C@H]2SC1 | inactive: 10.9% | – |
| COc1ccc([C@@H](C)C(=O)c2ccc(O)cc2O)cc1 | inactive: -8.21% | – |
| Cc1cnnc2ccccc12 | inactive: 12.8% | – |
| CCCCCCCC(=O)OCC(O)CO (configuration not stated) | inactive: 20.4% | – |
| COc1ccc2c(c1)OCC(Cc1ccc(OC)c(OC)c1)C2O (configuration not stated) | inactive | – |
| CO[C@H]1[C@H](NC(=O)c2ccco2)c2ccccc2C12CCN(Cc1cnc(N(C)C)s1)CC2 | inactive: 15% | – |
| c1ccc(-c2nc[nH]c2-c2ccccc2)cc1 | inactive: 14.4% | – |
| Cc1c(C(=O)NCC(C)(C)N2CCOCC2)cnn1-c1nccc(-c2cccs2)n1 | inactive: 13.5% | – |

| SMILES | activity change, negative = inhibition | Potency |
| --- | --- | --- |
| [O-][N+](=Nc1ccccc1)c1ccccc1 | inactive: 9.43% | – |
| O=C(C[n+]1cccc2ccccc21)c1ccc(F)cc1 | inactive: 26% | – |
| O=C1CCN(Cc2cccc(C(F)(F)F)c2)CCN1Cc1ccccn1 | inactive: 2.45% | – |
| NCCC(=O)N[C@H](Cc1cnc[nH]1)C(=O)O | inactive: 7.46% | – |
| NC(Cc1cc(I)c(Oc2ccc(O)c(I)c2)c(I)c1)C(=O)O (configuration not stated) | inactive: 23.5% | – |
| C[C@@H]1CCC(=O)N(CC[C@H](N=[N+]=[N-])c2ccccc2)CC1 | inactive: -9.74% | – |
| C=C(C)C1COc2cc3oc(=O)ccc3cc2O1 (configuration not stated) | inactive: 17.1% | – |
| Cc1nn(C)cc1CN1CCOc2ccc(CN3CCC(Oc4cccnc4)CC3)cc2C1 | inactive: 1.46% | – |
| Oc1ccc(-c2nc(-c3ccc(F)cc3)c(-c3ccncc3)[nH]2)cc1 | inactive | – |
| COc1cccc(-c2cncnc2NC2CCNCC2)c1 | inactive: 15.1% | – |
| CCCCCc1ccc(-c2cn(Cc3ccc(C(=O)c4ccccc4)cc3)nn2)cc1 | inactive: -9.22% | – |
| O=c1n(CCCN2CCN(c3cccc(Cl)c3)CC2)nc2ccccn12 | inactive | – |
| COC(=O)C[C@H]1c2cc(C(F)(F)F)ccc2S(=O)(=O)N1C1CCCC1 | inactive: 5.73% | – |
| CC(=O)NCCCCCC(=O)O | inactive: 12.5% | – |
| O=C(O)c1cc(=O)[nH]c(=O)[nH]1 | inactive: 3.23% | – |
| O=c1c(-c2ccc(Cl)cc2)nc2cnc(Nc3ccccc3)nc2n1C1CC1 | inactive: 14.9% | – |
| c1csc(CNc2nc(-c3ccc4c(c3)OCO4)nc3ccccc23)c1 | inactive: -11.7% | – |
| O=C(c1cc(-c2ccccc2)on1)N1CCOc2ccc(CN3CCN(c4ccccn4)CC3)cc2C1 | inactive: 6.85% | – |
| COc1cccc(Cn2c(=O)c(C)nc3cnc(Nc4cccc(OC)c4)nc32)c1 | inactive: 3.16% | – |
| CCCCC/C=C\C=C\[C@H](O)CCCCCCCC(=O)O | inactive: 18.8% [at 1.57 µM] | – |
| CN1C[C@H](C(=O)N[C@]2(C)O[C@@]3(O)C4CCCN4C(=O)[C@H](Cc4ccccc4)N3C2=O)C[C@@H]2c3cccc4[nH]cc(c34)C[C@H]21 (some centres not stated) | inactive: 2.41% | – |
| O[C@@H](CNC[C@H](O)[C@H]1CCc2cc(F)ccc2O1)[C@@H]1CCc2cc(F)ccc2O1 | inactive: 32.6% | – |

| SMILES | activity change, negative = inhibition | Potency |
| --- | --- | --- |
| CCCCCC(=O)/C=C/C=C\CCCCCCCC(=O)O | inactive: 12.2% [at 1.57 µM] | – |
| Oc1ccc(Cl)cc1Sc1cc(Cl)ccc1O | inactive: -15.1% | – |
| CC(=O)Nc1ccc(C(=O)N2CCCC(c3nc(SCc4ccccn4)ncc3C)C2)cc1 (configuration not stated) | inactive: 20.1% | – |
| CC(=O)N1CCC2(CC1)CN(C(c1ccccc1)c1ccccc1)C2 | inactive: 12.1% | – |
| CC1(C)S[C@@H]2[C@H](NC(=O)[C@H](N)c3ccccc3)C(=O)N2[C@H]1C(=O)O | inactive: 9.83% | – |
| O=C(Nc1cccc(F)c1)N1CCC2(CC1)CCN(C(=O)c1cnccn1)CC2 | inactive: 11.1% | – |
| COc1ccccc1CN1CC[C@@]2(CCCN(C(=O)c3c(C)noc3C)C2)C1 | inactive: 2.34% | – |
| C[N+]1(C)C2CC(OC(=O)C(CO)c3ccccc3)CC1C1OC12 (configuration not stated) | inactive: 24.8% | – |
| CCC1(C2CCN(C(=O)c3ccccc3C)CC2)NC(=O)N(CCc2scnc2C)C1=O (configuration not stated) | inactive: 16.5% | – |
| NC(CS)C(=O)O (configuration not stated) | inactive: 11.4% | – |
| O=C(c1csnn1)N1CCC[C@@]2(CCN(c3cccc(-c4ccccc4)c3)C2)C1 | inactive: 16% | – |
| CS(=O)(=O)Nc1c(O)ccc2c1CCCC2C1=NCCN1 (configuration not stated) | inactive: 29.2% | – |
| COCCNc1ncnc2ccc(-c3ccoc3)cc12 | inactive: 9.68% | – |
| COc1ccc(C(=O)N2CCC3(CCN(Cc4nccs4)CC3)CC2)cc1 | inactive: 29.9% | – |
| COc1ccc2cc([C@H](C)C(=O)O)ccc2c1 | inactive | – |
| O=C(O)/C=C1\CCCc2ccccc2C1O (configuration not stated) | inactive: 14.8% | – |
| NC(=O)[C@@H]1CCCN1C(=O)CC1(c2cccc(F)c2)CC(=O)N(C2CCCC2)C1=O (some centres not stated) | inactive: 15.2% | – |
| COc1cc(OC)cc(C(=O)N2CCCC(n3cc(C(=O)NCC(C)C)nn3)C2)c1 (configuration not stated) | inactive: -0.633% | – |
| O=C(O)[C@H]1CCCNC1 | inactive: 6.98% | – |
| C[C@]12CCC(=O)C=C1[C@@H]1C[C@@H]1[C@H]1[C@@H]3[C@@H]4C[C@@H]4[C@@]4(CCC(=O)O4)[C@@]3(C)CC[C@@H]12 | inactive: 22.4% | – |
| N#Cc1cccc(-c2cc(NCc3ccccc3)ncn2)c1 | inactive: -1.97% | – |
| C=C(C)[C@H]1CC=C(C)C(=O)C1 | inactive: 16.7% | – |

| SMILES | activity change, negative = inhibition | Potency |
| --- | --- | --- |
| Cc1noc(C)c1-c1ccc2ncnc(NC3CCNCC3)c2c1 | inactive: 19.5% | – |
| Cc1c(C(=O)NCCc2cccnc2)cnn1-c1nccc(-c2ccccc2F)n1 | inactive: 1.64% | – |
| CC(=O)C[C@H]1c2ccccc2S(=O)(=O)N1C1CCCCC1 | inactive: 2.7% | – |
| CC1=C(/C=C/C(C)=C/C=C/C(C)=C/CO)C(C)(C)CCC1 | inactive | – |
| COC(=O)c1ccccc1C(=O)NCc1nc(N2CCCC2)c2cccc(C)c2n1 | inactive: 9.4% | – |
| Cc1noc(C)c1C(=O)N1CCC2(CCN(Cc3cc(C(F)(F)F)cc(C(F)(F)F)c3)CC2)CC1 | inactive: -13.8% | – |
| COc1ccccc1N1CCN(CCN(C(=O)c2ccc(I)cc2)c2ccccn2)CC1 | inactive: -11.8% [at 75.8 µM] | – |
| COc1ccccc1CCc1nc2ccccc2n1C1CCN(C(=O)c2cc(C)nn2C)CC1 | inactive: 12.7% | – |
| O=C(O)c1ccccc1OP(=O)(O)O | inactive: 16.5% | – |
| O=S(=O)(c1ccccc1)N1CCC2(CC1)CN(c1ncccn1)C2 | inactive: -9.22% | – |
| OC1(c2ccc(Cl)cc2)CCN(Cc2c[nH]c3ccccc23)CC1 | inactive | – |
| COC(=O)c1c(C)cc(OC(=O)c2c(C)cc(O)c(C=O)c2O)c(C)c1O | inactive: 5.59% | – |
| C/C=C(/C(=C/C)c1ccc(O)cc1)c1ccc(O)cc1 | inactive | – |
| Nc1nc2[nH]c(=O)[nH]c2c(=O)[nH]1 | inactive: 14.1% | – |
| COc1ccccc1CN1CC2(CCN(S(=O)(=O)c3ccccc3)CC2)C1 | inactive: 1.32% | – |
| Cc1ncc([N+](=O)[O-])n1CC(C)O (configuration not stated) | inactive: 14.5% | – |
| O=C(NC1CCCC1)c1cn(C2CCCN(Cc3ccc4c(c3)OCCO4)C2)nn1 (configuration not stated) | inactive: -0.456% | – |
| O=c1c2ccccc2oc2ccc(Oc3ccccc3)cc12 | inactive: -13% | – |
